Experimental data reported in the supplement of paper PMC10369915.
The other results are listed elsewhere or left out. Cut-off read from the data, not from the text of the source: active = 3.2 or more and inactive = the rest. The signal is at background level for most entries.

What follows are binders tested against SHP2 C-SH2 domain E139D (assay: enrichment score (SH2-bound / input frequency) (ratio); bacterial display of known human phosphotyrosine sites (pTyr-Var adds point mutants) read by sequencing; higher = stronger binding; tyrosines were phosphorylated by kinases first). Conditions: peptide library: pTyr-Var.
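Note: displayed peptides selected on beads carrying the immobilized SH2 domain, with library peptides lacking any tyrosine serving as negative controls.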

Row | Binder | enrichment score
1 | VECRVYAEDPF [PCCA_Y401_YF] | inactive: 0.721
2 | DALDNYVIRGV [PCCA_Y473] | inactive: 0.925
3 | DALDNYVVRGV [PCCA_Y473_I475V] | inactive: 0.712
4 | FSKRIYKGMVA [PCDH15_Y931] | inactive: 0.764
5 | LINLKYSVEEE [PCDH19_Y27] | inactive: 1.67
6 | LINPKYSVEEE [PCDH19_Y27_L25P] | inactive: 0.852
7 | YRQNVYIPGSN [PCDHGA1_Y895] | inactive: 0.7
8 | HILRVYGGVLP [PCNX4_Y999] | inactive: 1.69
9 | HILRVYSGVLP [PCNX4_Y999_G1000S] | inactive: 1.42
10 | LSGFGYRLSDQ [PDCD6_Y124] | inactive: 1.29
11 | LSGFCYRLSDQ [PDCD6_Y124_G123C] | inactive: 0.839
12 | IPTPAYQSLPA [PDCD6IP_Y727_S730L] | inactive: 0.895
13 | KNKELYSDLFD [PDE10A_Y300] | inactive: 1.13
14 | NFATLYLKIYH [PDE6B_Y219] | inactive: 1.75
15 | NFATLHLKIYH [PDE6B_Y219_Y219H] | inactive: 3.17
16 | NFATLYLKIFH [PDE6B_Y219_YF] | inactive: 2.17
17 | IYHLSYHHNCE [PDE6B_Y227_L228H] | inactive: 2.07
18 | FQRITYHNWRH [PDE6B_Y556_R552Q_YF] | active: 3.98
19 | FHKALYTVRTY [PDE6C_Y266_S270T] | inactive: 0.681

What follows are binders tested against SHP2 C-SH2 domain wild-type in the same assay as above. Conditions: peptide library: pTyr-Var.

Row | Binder | enrichment score
20 | VECRVYAEDPF [PCCA_Y401_YF] | inactive: 0.933
21 | DALDNYVIRGV [PCCA_Y473] | inactive: 0.869
22 | DALDNYVVRGV [PCCA_Y473_I475V] | inactive: 0.716
23 | FSKRIYKGMVA [PCDH15_Y931] | inactive: 0.597
24 | LINLKYSVEEE [PCDH19_Y27] | inactive: 0.923
25 | LINPKYSVEEE [PCDH19_Y27_L25P] | inactive: 1.16
26 | YRQNVYIPGSN [PCDHGA1_Y895] | inactive: 0.574
27 | HILRVYGGVLP [PCNX4_Y999] | inactive: 1.58
28 | HILRVYSGVLP [PCNX4_Y999_G1000S] | inactive: 1.41
29 | LSGFGYRLSDQ [PDCD6_Y124] | inactive: 0.939
30 | LSGFCYRLSDQ [PDCD6_Y124_G123C] | inactive: 0.92
31 | IPTPAYQSLPA [PDCD6IP_Y727_S730L] | inactive: 0.702
32 | KNKELYSDLFD [PDE10A_Y300] | inactive: 0.724
33 | NFATLYLKIYH [PDE6B_Y219] | inactive: 1.65
34 | NFATLHLKIYH [PDE6B_Y219_Y219H] | active: 3.33
35 | NFATLYLKIFH [PDE6B_Y219_YF] | inactive: 2.36
36 | IYHLSYHHNCE [PDE6B_Y227_L228H] | inactive: 2.1
37 | FQRITYHNWRH [PDE6B_Y556_R552Q_YF] | active: 3.89
38 | FHKALYTVRTY [PDE6C_Y266_S270T] | inactive: 0.689

The binders below were run against SHP2 N-SH2 domain L43F in the same assay as above. Conditions: peptide library: pTyr-Var.

Row | Binder | enrichment score
39 | VECRVYAEDPF [PCCA_Y401_YF] | inactive: 1.06
40 | DALDNYVIRGV [PCCA_Y473] | inactive: 0.89
41 | DALDNYVVRGV [PCCA_Y473_I475V] | inactive: 0.772
42 | FSKRIYKGMVA [PCDH15_Y931] | inactive: 0.51
43 | LINLKYSVEEE [PCDH19_Y27] | inactive: 1.28
44 | LINPKYSVEEE [PCDH19_Y27_L25P] | inactive: 0.509
45 | YRQNVYIPGSN [PCDHGA1_Y895] | inactive: 0.631
46 | HILRVYGGVLP [PCNX4_Y999] | inactive: 2.1
47 | HILRVYSGVLP [PCNX4_Y999_G1000S] | inactive: 2.29
48 | LSGFGYRLSDQ [PDCD6_Y124] | inactive: 1.18
49 | LSGFCYRLSDQ [PDCD6_Y124_G123C] | inactive: 0.669
50 | IPTPAYQSLPA [PDCD6IP_Y727_S730L] | inactive: 0.736
51 | KNKELYSDLFD [PDE10A_Y300] | inactive: 0.858
52 | NFATLYLKIYH [PDE6B_Y219] | inactive: 2.08
53 | NFATLHLKIYH [PDE6B_Y219_Y219H] | inactive: 2.82
54 | NFATLYLKIFH [PDE6B_Y219_YF] | inactive: 2.05
55 | IYHLSYHHNCE [PDE6B_Y227_L228H] | inactive: 2.33
56 | FQRITYHNWRH [PDE6B_Y556_R552Q_YF] | active: 3.8
57 | FHKALYTVRTY [PDE6C_Y266_S270T] | inactive: 0.628

These binders were tested against SHP2 N-SH2 domain T42A in the same assay as above. Conditions: peptide library: pTyr-Var.

Row | Binder | enrichment score
58 | VECRVYAEDPF [PCCA_Y401_YF] | inactive: 0.695
59 | DALDNYVIRGV [PCCA_Y473] | inactive: 0.87
60 | DALDNYVVRGV [PCCA_Y473_I475V] | inactive: 0.701
61 | FSKRIYKGMVA [PCDH15_Y931] | inactive: 0.585
62 | LINLKYSVEEE [PCDH19_Y27] | inactive: 1.51
63 | LINPKYSVEEE [PCDH19_Y27_L25P] | inactive: 0.866
64 | YRQNVYIPGSN [PCDHGA1_Y895] | inactive: 0.555
65 | HILRVYGGVLP [PCNX4_Y999] | inactive: 1.23
66 | HILRVYSGVLP [PCNX4_Y999_G1000S] | inactive: 1.27
67 | LSGFGYRLSDQ [PDCD6_Y124] | inactive: 1.4
68 | LSGFCYRLSDQ [PDCD6_Y124_G123C] | inactive: 0.828
69 | IPTPAYQSLPA [PDCD6IP_Y727_S730L] | inactive: 0.639
70 | KNKELYSDLFD [PDE10A_Y300] | inactive: 1.03
71 | NFATLYLKIYH [PDE6B_Y219] | inactive: 2.55
72 | NFATLHLKIYH [PDE6B_Y219_Y219H] | inactive: 2.38
73 | NFATLYLKIFH [PDE6B_Y219_YF] | inactive: 3.05
74 | IYHLSYHHNCE [PDE6B_Y227_L228H] | inactive: 2.06
75 | FQRITYHNWRH [PDE6B_Y556_R552Q_YF] | active: 3.31
76 | FHKALYTVRTY [PDE6C_Y266_S270T] | inactive: 0.714

These binders were tested against SHP2 N-SH2 domain T52S in the same assay as above. Conditions: peptide library: pTyr-Var.

Row | Binder | enrichment score
77 | VECRVYAEDPF [PCCA_Y401_YF] | inactive: 0.69
78 | DALDNYVIRGV [PCCA_Y473] | inactive: 0.946
79 | DALDNYVVRGV [PCCA_Y473_I475V] | inactive: 0.822
80 | FSKRIYKGMVA [PCDH15_Y931] | inactive: 0.66
81 | LINLKYSVEEE [PCDH19_Y27] | inactive: 1.59
82 | LINPKYSVEEE [PCDH19_Y27_L25P] | inactive: 1.41
83 | YRQNVYIPGSN [PCDHGA1_Y895] | inactive: 0.652
84 | HILRVYGGVLP [PCNX4_Y999] | inactive: 2.15
85 | HILRVYSGVLP [PCNX4_Y999_G1000S] | inactive: 2.13
86 | LSGFGYRLSDQ [PDCD6_Y124] | inactive: 1.2
87 | LSGFCYRLSDQ [PDCD6_Y124_G123C] | inactive: 0.902
88 | IPTPAYQSLPA [PDCD6IP_Y727_S730L] | inactive: 0.795
89 | KNKELYSDLFD [PDE10A_Y300] | inactive: 0.75
90 | NFATLYLKIYH [PDE6B_Y219] | inactive: 2.12
91 | NFATLHLKIYH [PDE6B_Y219_Y219H] | inactive: 2.86
92 | NFATLYLKIFH [PDE6B_Y219_YF] | inactive: 1.87
93 | IYHLSYHHNCE [PDE6B_Y227_L228H] | inactive: 1.95
94 | FQRITYHNWRH [PDE6B_Y556_R552Q_YF] | active: 4.41
95 | FHKALYTVRTY [PDE6C_Y266_S270T] | inactive: 0.61

What follows are binders tested against SHP2 N-SH2 domain wild-type in the same assay as above. Conditions: peptide library: pTyr-Var.

Row | Binder | enrichment score
96 | VECRVYAEDPF [PCCA_Y401_YF] | inactive: 1.15
97 | DALDNYVIRGV [PCCA_Y473] | inactive: 0.806
98 | DALDNYVVRGV [PCCA_Y473_I475V] | inactive: 0.717
99 | FSKRIYKGMVA [PCDH15_Y931] | inactive: 0.663
100 | LINLKYSVEEE [PCDH19_Y27] | inactive: 1.33
101 | LINPKYSVEEE [PCDH19_Y27_L25P] | inactive: 1.16
102 | YRQNVYIPGSN [PCDHGA1_Y895] | inactive: 0.799
103 | HILRVYGGVLP [PCNX4_Y999] | inactive: 1.55
104 | HILRVYSGVLP [PCNX4_Y999_G1000S] | inactive: 1.83
105 | LSGFGYRLSDQ [PDCD6_Y124] | inactive: 1.29
106 | LSGFCYRLSDQ [PDCD6_Y124_G123C] | inactive: 1.16
107 | IPTPAYQSLPA [PDCD6IP_Y727_S730L] | inactive: 0.815
108 | KNKELYSDLFD [PDE10A_Y300] | inactive: 0.838
109 | NFATLYLKIYH [PDE6B_Y219] | inactive: 2.07
110 | NFATLHLKIYH [PDE6B_Y219_Y219H] | inactive: 2.62
111 | NFATLYLKIFH [PDE6B_Y219_YF] | inactive: 2.07
112 | IYHLSYHHNCE [PDE6B_Y227_L228H] | inactive: 2.27
113 | FQRITYHNWRH [PDE6B_Y556_R552Q_YF] | active: 3.82
114 | FHKALYTVRTY [PDE6C_Y266_S270T] | inactive: 0.904
